Experimental data reported in PubChem BioAssay AID504832 (National Center for Advancing Translational Sciences (NCATS), 2011).
Out of some 310,000 compounds screened, about 18,000 (5.8%) were called active. The shares of active, inactive and inconclusive entries below differ from those in the screen. Calls follow the shape of the dose curve; as a rule, active = well fitted inhibition curve with a large enough effect; inconclusive = small, poorly fitted or top-dose-only effect, or another doubt; inactive = no such curve, though single readings can be large or run the other way. Potencies of inconclusive entries are left out as doubtful fits.

Assay: Primary qHTS for delayed death inhibitors of the malarial parasite plastid, 48 hour incubation
Conditions: P. falciparum luciferase growth in erythrocytes; series mostly up to 28.7 µM; activity change, negative = inhibition: at the top concentration
In short: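 Firefly luciferase activity from engineered P. falciparum reports growth; inhibitors lower the luminescent signal. Cultures contained 2% hematocrit erythrocytes at 0.1% final parasitemia.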
% is scaled to controls: 0 for no effect and ±100 for the full control effect; potency is read from the fitted curve at half-maximal effect; tags tell the direction and shape of the fitted curve.

For `CN1CCN(c2ccc([N+](=O)[O-])c(Sc3ccccn3)c2)CC1`, which Potency is on record?
The Potency was inconclusive [inhibitor, single point].

For `Cc1ccccc1CNC(=O)Cc1ccccc1[N+](=O)[O-]`, which “activity change, negative = inhibition” value is on record?
Its value is inactive: 77.3%.

Which Potency does the source give for `COc1ccc(NC(=O)CCCn2c(=O)[nH]c3ccccc3c2=O)cc1` here?
Its Potency is active: 2.33 µM.

With `Nc1c(C(=O)Nc2ccccc2)sc2nc3c(c(-c4ccco4)c12)CCC3` as the compound, how does the Potency read?
Its Potency is inconclusive [inhibitor, full curve, poor fit].

Which Potency does the source give for `O=[N+]([O-])c1ccc(N2CCN(C(=S)Nc3ccc(F)cc3F)CC2)cc1` here?
The Potency was inconclusive [inhibitor, single point].

Which “activity change, negative = inhibition” value does the source give for `COCCCn1c(C)cc(C(=O)COC(=O)C23CC4CC(CC(O)(C4)C2)C3)c1C` here?
The value was inactive: 92.9%.

With `Cc1cc(Cl)ccc1OCCCC(=O)NCc1cccs1` as the compound, how does the Potency read?
Its Potency is inconclusive [inhibitor, single point].

With `COc1ccc(NC(=O)C(C)N(c2ccc(C)cc2)S(C)(=O)=O)c(OC)c1` (stereo not given) as the compound, how does the Potency read?
The Potency was inconclusive [inhibitor, single point].

Which “activity change, negative = inhibition” value does the source give for `CC(C)(C)C(=O)Nc1ccc(/C=C/C(=O)c2ccco2)cc1` here?
Its value is inactive: -0.816%.

With `CCCc1cc(Nc2ccccc2OCC)n2ncnc2n1` as the compound, how does the Potency read?
Its Potency is inconclusive [inhibitor, single point].

Which Potency does the source give for `CC(C)Cn1c(SCC(=O)c2c(N)n(C)c(=O)n(C)c2=O)nc2ccccc21` here?
The Potency was inconclusive [inhibitor, single point].

For `O=C(Nc1ccc(CN2CCOCC2)cc1)c1ccc(-c2cc(Cl)ccc2Cl)o1`, which Potency is on record?
The Potency was active: 1.85 µM.

For `COc1ccccc1NC(=O)CSc1nnc(C)s1`, which “activity change, negative = inhibition” value is on record?
Its value is inactive: 12%.

With `CC(C)CN(Cc1cc(=O)oc2cc3c(cc12)CCCC3)CC(C)C` as the compound, how does the Potency read?
Its Potency is active: 1.31 µM.

With `CC(C)c1cccc(C(C)C)c1OC(=O)[C@H]1OC(C(C)(C)C)=C[C@@H]1c1ccccc1` as the compound, how does the Potency read?
Its Potency is inconclusive [inhibitor, single point].

For `CC(C)CC(=O)Nc1c2c(nn1-c1ccc(F)cc1)CS(=O)C2` (stereo not given), which Potency is on record?
The Potency was inconclusive [inhibitor, single point].

For `Cc1cc(NC(=O)C(C)SCC(=O)Nc2nnc(CC(C)C)s2)no1` (stereo not given), which Potency is on record?
Its Potency is inconclusive [inhibitor, partial curve, poor fit].

Which Potency does the source give for `CCOC(=O)C1(Cc2cccc(OC)c2)CCN(Cc2cccn2-c2nccs2)CC1` here?
The Potency was active: 11.7 µM.

With `C=CCNC(C(=O)Nc1cccc(OC)c1)c1ccccc1` (stereo not given) as the compound, how does the Potency read?
Its Potency is inconclusive [inhibitor, partial curve].

With `CN1C[C@@H]2C[C@@H](c3cccn3-c3ccccn3)N3CCC[C@@]23C1=O` as the compound, how does the “activity change, negative = inhibition” value read?
The value was inactive: 32.4%.
